Experimental data from paper PMC4336329 (PLoS ONE, 2015).
In all, about 310,000 compounds went through this assay and about 2,200 (0.71%) showed an effect of 50% or more. Effects have a minus sign here. The list shows a part of the results.

Molecular target: human ether-à-go-go-related gene (hERG) potassium channel (human, UniProt Q12809)
Test: primary screen, population patch clamp on CHO cells stably expressing hERG

human ether-à-go-go-related gene (hERG) potassium channel, sequence (Q12809 whole entry, looked up): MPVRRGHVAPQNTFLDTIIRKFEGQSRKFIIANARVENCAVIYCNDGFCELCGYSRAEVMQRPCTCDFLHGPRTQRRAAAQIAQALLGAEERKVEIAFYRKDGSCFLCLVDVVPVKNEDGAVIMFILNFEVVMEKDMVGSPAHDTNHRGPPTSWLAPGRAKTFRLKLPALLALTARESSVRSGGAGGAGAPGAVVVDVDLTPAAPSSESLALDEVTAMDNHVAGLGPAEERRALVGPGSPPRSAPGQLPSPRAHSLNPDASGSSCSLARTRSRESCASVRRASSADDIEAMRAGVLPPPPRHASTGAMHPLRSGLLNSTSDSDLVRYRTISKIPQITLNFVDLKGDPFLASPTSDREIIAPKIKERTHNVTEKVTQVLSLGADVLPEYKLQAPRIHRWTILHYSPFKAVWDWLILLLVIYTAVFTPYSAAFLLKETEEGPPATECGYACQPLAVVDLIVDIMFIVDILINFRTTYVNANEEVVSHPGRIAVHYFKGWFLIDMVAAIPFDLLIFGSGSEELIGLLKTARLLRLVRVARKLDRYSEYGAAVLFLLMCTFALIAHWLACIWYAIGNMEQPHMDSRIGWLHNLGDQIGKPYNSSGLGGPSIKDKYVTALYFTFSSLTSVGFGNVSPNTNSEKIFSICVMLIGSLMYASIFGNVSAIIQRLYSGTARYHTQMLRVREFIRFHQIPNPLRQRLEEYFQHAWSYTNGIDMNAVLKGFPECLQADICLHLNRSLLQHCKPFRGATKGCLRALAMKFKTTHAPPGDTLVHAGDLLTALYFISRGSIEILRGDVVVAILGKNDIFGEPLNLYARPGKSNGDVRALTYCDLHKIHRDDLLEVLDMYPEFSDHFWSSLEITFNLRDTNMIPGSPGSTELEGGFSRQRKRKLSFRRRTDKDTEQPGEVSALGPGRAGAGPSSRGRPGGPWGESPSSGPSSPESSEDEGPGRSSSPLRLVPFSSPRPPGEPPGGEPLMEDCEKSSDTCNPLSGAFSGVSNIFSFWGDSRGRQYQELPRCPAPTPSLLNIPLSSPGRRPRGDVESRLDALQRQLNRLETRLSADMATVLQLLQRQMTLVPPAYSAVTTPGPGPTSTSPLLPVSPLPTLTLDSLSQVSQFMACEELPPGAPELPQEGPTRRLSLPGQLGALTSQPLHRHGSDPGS

Row | SMILES | hERG current change (%, negative = inhibition) at 1uM [%]
1 | CCOC(=O)C1CCN(C(=O)/C=C/c2ccc3c(c2)OCO3)CC1 | 18.2
2 | O=C(Nc1ccc2c(c1)OCCO2)Nc1ccc2c(c1)OCO2 | 16
3 | O=C(c1ccco1)N1CCN(c2ncccn2)CC1 | 1.97
4 | CC(OC(=O)c1cccnc1Cl)C(=O)Nc1ccc(S(N)(=O)=O)cc1 (stereo not drawn) | 23.1
5 | COc1ccc(C2NC(=O)c3sc4nc(C)c(C(C)=O)c(-c5ccc(Cl)cc5)c4c3N2)cc1 (stereo not drawn) | 4.5
6 | Cc1ccc(C(=O)NC(=S)Nc2ccc(S(=O)(=O)N(C)c3ccccc3)cc2)cc1 | 15.1
7 | COc1ccc(CCN=C(NS(=O)(=O)c2ccc(Cl)cc2)c2ccccc2)cc1 | -2.44
8 | Cc1noc(C)c1C(=O)Nc1cccnc1 | 15
9 | O=C(c1cc(COc2ccc3ncccc3c2)on1)N1CCCCCC1 | 5.47
10 | CCOC(=O)N1CCN(C(=O)CSc2nnc(Cc3cccn3C)n2CCc2ccccc2)CC1 | 11.7
11 | O=C(O)c1ccc(NS(=O)(=O)c2cccc(C(=O)Nc3cccc(C(=O)O)c3)c2)cc1 | 10
12 | COc1ccc(-c2cc3c(=O)n(CC(=O)NCCN4CCCC4)nc(C)n3n2)cc1 | -9.09
13 | COC(=O)C(Cc1ccc(O)cc1)NC(=O)c1ccccc1OC (stereo not drawn) | 3.58
14 | O=C(Nc1ccc(N2CCOCC2)cc1)C1CCN(S(=O)(=O)c2ccc3c(c2)OCCO3)CC1 | 3.43
15 | CCCCCN(C(=O)NC(=O)NCCCC)S(C)(=O)=O | 2.07
16 | CCOC(=O)[C@@H]1[C@H]2COc3ccccc3[C@@H]2N2C(=O)N(c3cccc(F)c3)C(=O)[C@]12C | 6.94
17 | CCn1c(=O)c(=O)[nH]c2cc(C(=O)NC3CCCc4ccccc43)ccc21 (stereo not drawn) | 11.2
18 | Cc1cccc(C)c1NC(=O)C(NC(=O)c1ccccn1)c1ccccc1[N+](=O)[O-] (stereo not drawn) | 9.82
19 | O=C(NC[P+](=O)O)OCc1ccccc1 | 6.58
20 | CCC(C)NC(=O)C1CCC(=O)N1CCc1ccccc1 (stereo not drawn) | 9.32
21 | CCOC(=O)CSc1nnnn1-c1cc(OC)ccc1OC | 4.37
22 | S=c1[nH]nc(-c2ccncc2)n1/N=C/C=C/c1ccco1 | 12.5

Row | SMILES | hERG current change (%, negative = inhibition) at 1uM [%]
23 | COc1ccc(OC)c(/C=C2\SC(N3CCCC(C)C3)=NC2=O)c1 (stereo not drawn) | 4.26
24 | Fc1cccc(CN2CCC(Cc3ccccc3)CC2)c1 | 9.02
25 | COc1cc(C2NC(=O)NC(C)=C2C(=O)OCC2CCCO2)ccc1O (stereo not drawn) | 8.04
26 | Cc1ccc(NC(=O)CN2C(=O)NC3(CCc4ccccc43)C2=O)cc1S(=O)(=O)N1CCCCC1 (stereo not drawn) | 11.4
27 | COC(=O)c1sc(N)c(C(=O)OC)c1COC(=O)c1c(C)noc1C | 9.24
28 | CCSC1=C(C#N)C2(CCCCC2)C2=C(CC(C)(C)CC2=O)N1 | 12.3
29 | COc1ccc(-c2cnnn2-c2ccc(NC(=O)c3ccco3)cc2)cc1OC | -2.01
30 | Cc1ccc(C)c(NS(=O)(=O)c2ccc3[nH]c(=O)oc3c2)c1 | 13.3
31 | O=C(O)c1cc(=O)c2cc(Cl)ccc2o1 | 13.3
32 | Cc1ccccc1-c1nc2ccccc2o1 | 16.4
33 | CCOC(=O)C1=C(C)N(C)C(C)=C(C(=O)OCC)C1c1ccc(C(=O)OC)cc1 | 11.1
34 | CNC(=S)NNc1nc(-c2ccccc2)c2cc(Cl)ccc2n1 | 15.6
35 | CC(=O)Nc1ccc2c(c1)CC1(C(=O)N(C)C(=O)N(C)C1=O)C1CCCN21 (stereo not drawn) | 14.6
36 | COc1ccccc1C(=O)Nc1ccc2c(c1)OCCO2 | 16.8
37 | O=C(/C=C/c1cccc([N+](=O)[O-])c1)Nn1c(-c2ccccc2F)nc2ccccc2c1=O | 3.83
38 | COc1ccccc1N(C(=O)c1ccco1)C(C(=O)NC1CCCC1)c1cccnc1 (stereo not drawn) | 4.39
39 | O=C(CSc1ncnc2scc(-c3ccccc3)c12)N1CCN(c2ccccc2F)CC1 | 7.36
40 | CCOC(=O)C1CCCN(C(=O)CCCn2nnnc2CN2CCC(C)CC2)C1 (stereo not drawn) | 8.37
41 | O=C(NCCCCNC(=O)c1c(F)c(F)c(F)c(F)c1F)c1c(F)c(F)c(F)c(F)c1F | 1.56
42 | O=C1OC(c2ccc(F)cc2)=N/C1=C\c1ccc(Br)o1 | 6.32
43 | CC(C(=O)Nc1ccccc1)N(c1cccc(Cl)c1)S(C)(=O)=O (stereo not drawn) | 9.74
44 | CCC(C)(C)n1nnnc1C(c1ccc2ncccc2c1)N1CCCCCC1 (stereo not drawn) | 10

Row | SMILES | hERG current change (%, negative = inhibition) at 1uM [%]
45 | COc1cc(OC)cc(C(=O)Nc2ccc(S(=O)(=O)N(C)C)cc2)c1 | 7.17
46 | Cc1csc(NC(=O)C(Cl)c2ccccc2)n1.O=C(O)C(Cl)c1ccccc1 (stereo not drawn) | 13.5
47 | O=C(OCC(=O)N1CCCc2ccccc21)c1ccc(F)c(S(=O)(=O)N2CCOCC2)c1 | 10.8
48 | Cc1ccnc(NC(=O)CCC(=O)N(CC(=O)NCc2ccc(F)cc2)c2ccc(F)cc2)c1 | 11.1
49 | CN(C(=O)C1CCC(=O)N(CCCN2CCCC2=O)C1)C(C1CC1)C1CC1 (stereo not drawn) | 15.4
50 | CC1(C)OC(=O)N(CC(=O)Nc2cccc(C(F)(F)F)c2)C1(C)O (stereo not drawn) | 12.8
51 | CCCc1c(C)c(C#N)c2nc3ccccc3n2c1NCCCN1CCOCC1 | -20.5
52 | O=C(c1ccccn1)C1CCCN(Cc2nc(Cc3cccc(F)c3)no2)C1 (stereo not drawn) | 7.35
53 | O=C(NC1=NCCS1)c1cccc(Br)c1 | 8.54
54 | O=C(CCN1C(=O)/C(=C/c2ccccc2Cl)SC1=S)NC1CCS(=O)(=O)C1 (stereo not drawn) | 10.3
55 | Oc1ccc(/C=N/NC(=S)Nc2cccnc2)c(O)c1 | 7.17
56 | N/C(=N\OC(=O)N1CCOCC1)c1ccc(Cl)cc1 | 18.2
57 | O=Cc1cn(Cc2ccc(F)cc2Cl)c2ccccc12 | 4.54
58 | CCC(=O)Nc1cc(-c2nn(C)c(=O)c3ccccc23)ccc1N1CCOCC1 | 10.3
59 | CCn1cc(S(=O)(=O)CC(=O)N2CCc3ccccc32)c2ccccc21 | -3.09
60 | Cc1ccc(N(C(C)C(=O)Nc2cccc(N(C)S(C)(=O)=O)c2)S(C)(=O)=O)cc1 (stereo not drawn) | 11.4
61 | CC(=O)c1ccc(C(=O)N(CCN(C)C)c2nc3c(Cl)cccc3s2)cc1.Cl | -3.91
62 | CC(=O)N1N=C(c2ccccc2)OC12CCCC2 | 8.91
63 | CCN(CC)S(=O)(=O)c1ccc(OC)c(NC(=O)c2ccc(=O)[nH]c2)c1 | 6.5
64 | COC(=O)CC(=O)c1ccc2c(c1)OCO2 | 11.6
65 | COc1ccc(C(C)C)cc1S(=O)(=O)N1CCN(c2ccccc2)CC1 | 16.8
66 | Cc1ccc(N2CCN(/N=C/c3c(C)nn(-c4ccccc4)c3Cl)CC2)cc1 | 10.8

Row | SMILES | hERG current change (%, negative = inhibition) at 1uM [%]
67 | CCc1cc(=O)oc2cc(C)c(CN3CCCC(C)C3)c(O)c12 (stereo not drawn) | 0.527
68 | CCc1noc(C)c1C(=O)N1CCC(CCC(=O)Nc2cccc(C)c2)CC1 | -8.05
69 | Cn1c(SCC(=O)c2ccc(F)cc2)nnc1-c1ccccc1N | 14.5
70 | CCc1cc2c(C)ccc(C)c2nc1SCC(=O)Nc1c[nH]c(=O)[nH]c1=O | 5.61
71 | CC(=O)c1cccc(CN2CCCC(CCC(=O)NCc3ccc(C)o3)C2)c1 (stereo not drawn) | 9.01
72 | O=C(Nc1cc2c(cc1Cl)OCCO2)c1ccco1 | 14.6
73 | Cc1cnc(C(=O)OCC(=O)N(C)CC(=O)Nc2ccccc2Cl)cn1 | 9.35
74 | Clc1ccccc1Cc1noc(CN2CCCCC2CCc2ccccn2)n1 (stereo not drawn) | -3.35
75 | CCn1ccnc1CN1CCCC(C(=O)c2ccc3c4c(cccc24)CC3)C1 (stereo not drawn) | -4.34
76 | COCCn1c(SCC(=O)N2CC(=O)Nc3ccccc32)nc2ccccc2c1=O | -3.74
77 | Oc1ccc(/C=C/c2cc(O)cc(O)c2)cc1 | 3.24
78 | COC(=O)c1ccc(CNC(=O)c2cc(COc3cncc(Cl)c3)on2)cc1 | 17.2
79 | CC(C)CCNC(=O)C12CN(Cc3ccccc3)CC1C(c1ccc([N+](=O)[O-])cc1)=NO2 (stereo not drawn) | -12.7
80 | CC(C)(C)OC(=O)N1CCN(C(=O)c2[nH]cnc2C(=O)Nc2ccon2)CC1 | 12.3
81 | CN(C)c1cccc2c1c(NC(=O)Nc1ccc(F)cc1F)nn2C | 8.86
82 | Cc1cccc(NC(=O)c2ccccc2NC(=O)c2ccco2)c1 | 0.671
83 | NCCCC[C@@H](C(=O)N1CCNCC1)n1cc([C@@H](N)CC(N)=O)nn1 | 6.56
84 | CC1CCN(C(c2nnnn2CCc2ccccc2)C(C)C)CC1 (stereo not drawn) | 0.875
85 | c1cncc(C2CC(c3cccs3)n3ncnc3N2)c1 (stereo not drawn) | 9.93
86 | CN(C(=O)COC(=O)c1c[nH]c(=O)[nH]c1=O)C1CCCCC1 | -2.51
87 | CC(C)OCCCN1CN(S(=O)(=O)c2ccc(Cl)cc2)c2nc3ccccc3nc21 | 13.8
